Out of some 310,000 compounds screened, about 14,000 (4.5%) showed an effect of 50% or more. The effect is printed as a negative number. Some of the results follow.
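Also: peak tail current of the secondary pulse compared with the same well before compound.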

human ether-à-go-go-related gene (hERG) potassium channel, sequence (Q12809 whole entry, looked up): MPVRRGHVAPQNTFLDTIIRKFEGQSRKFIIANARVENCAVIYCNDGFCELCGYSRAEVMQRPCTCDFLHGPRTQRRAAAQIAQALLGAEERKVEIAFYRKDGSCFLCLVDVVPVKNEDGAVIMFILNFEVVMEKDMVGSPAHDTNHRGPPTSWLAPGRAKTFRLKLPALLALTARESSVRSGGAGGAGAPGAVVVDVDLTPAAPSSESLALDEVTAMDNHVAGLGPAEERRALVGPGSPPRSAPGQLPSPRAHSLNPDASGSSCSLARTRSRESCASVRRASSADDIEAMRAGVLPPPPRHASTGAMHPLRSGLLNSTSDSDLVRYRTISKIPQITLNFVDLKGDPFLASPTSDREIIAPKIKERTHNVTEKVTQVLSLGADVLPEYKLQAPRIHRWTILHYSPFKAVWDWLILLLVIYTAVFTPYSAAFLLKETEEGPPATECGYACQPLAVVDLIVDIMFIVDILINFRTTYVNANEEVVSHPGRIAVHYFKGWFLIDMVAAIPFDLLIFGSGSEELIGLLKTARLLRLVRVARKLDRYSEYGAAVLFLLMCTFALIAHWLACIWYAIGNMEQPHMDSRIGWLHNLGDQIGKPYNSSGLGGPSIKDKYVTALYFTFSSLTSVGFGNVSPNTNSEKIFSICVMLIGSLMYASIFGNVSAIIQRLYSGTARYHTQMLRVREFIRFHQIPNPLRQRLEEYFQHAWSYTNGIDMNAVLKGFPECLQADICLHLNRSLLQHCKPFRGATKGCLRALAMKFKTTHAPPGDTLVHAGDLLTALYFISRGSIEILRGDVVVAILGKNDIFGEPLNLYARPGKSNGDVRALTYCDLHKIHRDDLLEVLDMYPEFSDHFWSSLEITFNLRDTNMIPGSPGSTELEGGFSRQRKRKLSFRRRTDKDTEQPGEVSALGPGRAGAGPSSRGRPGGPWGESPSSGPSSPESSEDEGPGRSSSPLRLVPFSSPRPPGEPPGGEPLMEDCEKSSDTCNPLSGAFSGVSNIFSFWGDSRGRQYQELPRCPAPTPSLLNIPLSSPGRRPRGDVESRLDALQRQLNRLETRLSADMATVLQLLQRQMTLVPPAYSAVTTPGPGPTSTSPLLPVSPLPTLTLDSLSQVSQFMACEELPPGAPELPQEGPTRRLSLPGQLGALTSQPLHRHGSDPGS

This test concerns the target human ether-à-go-go-related gene (hERG) potassium channel (human, UniProt Q12809). Description: primary screen, population patch clamp on CHO cells stably expressing hERG.
Take `O=C(CN1CCC(C(=O)c2ccc(Cl)cc2)CC1)Nc1ccc2c(c1)OCCO2`: the “hERG current change (%, negative = inhibition) at 10uM” value is given as -44.9%. The same measure for `Cc1nc2cc(-c3cccs3)nn2c(NCC(C)(C)CN(C)C)c1C`: -12.2%; for `O=C(CP(=O)(c1ccccc1)c1ccccc1)Nc1nc2ccc(Cl)cc2s1`: -3.84%; for `O=C(N1CCOCC1)N1CCC(n2nnc3ccccc32)CC1`: 0.835%. As for `Cc1ccc(OC(=O)c2cccnc2)cc1`, the figure is 21.6%.

On to `CC1(C)CC(=O)c2cc(OCC(=O)N3CCCCCC3)ccc2O1`, for which the “hERG current change (%, negative = inhibition) at 10uM” value is recorded as -18.7%. `CCOCCCNC(=S)Nc1ccc2nc(N3CCN(CC)CC3)cc(C)c2c1`: the “hERG current change (%, negative = inhibition) at 10uM” value worked out at 4.36%. Turning to `O=C(COc1cc(F)ccc1[N+](=O)[O-])NCCCc1ccccc1`, the “hERG current change (%, negative = inhibition) at 10uM” value is on record as -34.6%. The same measure for `Cc1ccc(NC(=O)CSCC(=O)NCc2cccc(C(F)(F)F)c2)cc1`: -2.27%; for `CC(C)(C)S(=O)(=O)c1nc2ccccc2s1`: 6.74%; for `Cl.OC(C#CCN1CCOCC1)(c1ccccc1)C1CCCC1` (stereo not drawn): 14.5%. For the compound `CCOC(=O)c1cccc(NC(=O)CSc2nnc(C3CCCCC3)n2CC)c1`, the “hERG current change (%, negative = inhibition) at 10uM” value was -27.9%. Regarding `O=C(CC1C(=O)NCCN1Cc1ccc(F)c(F)c1)NCCCn1ccnc1` (stereo not drawn), the “hERG current change (%, negative = inhibition) at 10uM” value worked out at 19%. Turning to `Cc1ccsc1/C=N/NC(=O)c1nnn(-c2nonc2N)c1C(C)C`, the “hERG current change (%, negative = inhibition) at 10uM” value was 5.93%. The same measure for `CSc1nnc(NC(=O)c2ccc(C)c(S(=O)(=O)N3CCOCC3)c2)s1`: 0.594%; for `CCOC(=O)c1cc(-c2ccccc2C)n(Cc2cc(C)no2)n1`: -7.87%; for `COc1cc(CC(NC(C)=O)C(=O)NC2CCN(C(=O)c3ccc(C)cc3)CC2)cc(OC)c1` (stereo not drawn): -12%. The same measure for `CCOc1ccc(N(CC(=O)NCCC2=CCCCC2)S(=O)(=O)c2ccccc2)cc1`: 24.3%; for `Nc1cnccc1C(=O)O`: 24.5%. The same measure for `CC(Oc1ccccc1)C(=O)Nc1cccc(NC(=O)c2ccco2)c1` (stereo not drawn): -19.2%; for `CC1CC(C)CN(S(=O)(=O)N2CCCC(C(=O)NCCc3ccc(Cl)cc3)C2)C1` (stereo not drawn): 6.84%; for `Cc1ccc(NC(=O)NC2CCCCCCC2)cc1`: 15.7%.

Turning to `CC(=O)N(CCCN(C)C)c1nc2ccc(C)cc2s1.Cl`, the “hERG current change (%, negative = inhibition) at 10uM” value is listed as -7.07%. As for `CCOC(=O)N1CCN(c2c(-c3ccccc3)c3cc(Cl)ccc3[nH]c2=O)CC1`, the figure is -11.4%; as for `CC(/C=N/n1cnnc1)=C\c1ccco1`, -16.9%. With `CC(C)Cc1nnc(NS(=O)(=O)c2ccc(Cl)cc2)s1`, the “hERG current change (%, negative = inhibition) at 10uM” value amounted to 8.2%. As for `CN(C(=O)c1cccnc1)c1nnc(-c2cccnc2)s1`, the figure is 14.4%; as for `CC(C)Cn1c(N)c(C(=O)COC(=O)c2ccc([N+](=O)[O-])o2)c(=O)n(C)c1=O`, -69.5%. As for `CCOC(=O)C(C)n1ncn2cccc2c1=O` (stereo not drawn), the figure is 11.9%; as for `NC(=O)C1(N2CCCCC2)CCN(Cc2nc3ccccc3c(=O)[nH]2)CC1`, -0.257%; as for `O=C(NCc1ccc2c(c1)OCO2)c1ccc(Cl)nc1`, -22.2%.

As for `CCCn1nnnc1NCc1ccccc1C`, the “hERG current change (%, negative = inhibition) at 10uM” value came out at 14.7%.

As to `Cc1nc(CCNC(=O)C2CCC(=O)N(Cc3cccc(F)c3)C2)sc1C` (stereo not drawn), the “hERG current change (%, negative = inhibition) at 10uM” value worked out at 2.11%. With `Cc1ccsc1/C=C1/SC(=O)N(CC(=O)N2CCCC2)C1=O`, the “hERG current change (%, negative = inhibition) at 10uM” value is given as 8.21%. The same measure for `Cc1ccc(NCc2cccnc2)cc1`: 2.82%.

For `Cc1ccn2c(C(=O)NN=C3CCCCCCC3)c(C)nc2c1`, the “hERG current change (%, negative = inhibition) at 10uM” value came to 9.89%. The same measure for `CCOC(=O)CN1C(=O)C(O)=C(C(C)=O)C1c1ccccc1` (stereo not drawn): 11.3%; for `O=C(O)C1CCCN1c1ncnc2c1oc1ccccc12` (stereo not drawn): 13.7%. As for `CC(C)C(NC(=O)c1ccccc1F)C(=O)Nc1ccc2c(c1)OCO2` (stereo not drawn), the “hERG current change (%, negative = inhibition) at 10uM” value came out at 0.195%. As for `CN(CCC#N)C(=O)COC(=O)c1c2c(nc3ccccc13)/C(=C/c1ccco1)CC2`, the figure is 4.03%; as for `CC1CCC/C(=N\NC(=O)COc2ccc(Cl)cc2Cl)C1` (stereo not drawn), -6.6%; as for `Cc1ccc(OCC(=O)N/N=C2\CCOc3c(C)cccc32)cc1`, -1.22%. The same measure for `CC(=O)N1CC(C)Sc2ccc(S(=O)(=O)NCc3ccc(F)cc3)cc21` (stereo not drawn): -49.6%.

For `Cc1cccc(C(C)(C)C)c1OCCCCN1CCCC1.O=C(O)C(=O)O`, the “hERG current change (%, negative = inhibition) at 10uM” value was -38.2%. On to `O=C(Cc1cccc(F)c1)N1CCCC(CO)(Cc2ccc(F)cc2F)C1` (stereo not drawn), for which the “hERG current change (%, negative = inhibition) at 10uM” value is recorded as -9.84%.

On to `O=C(c1ccccc1)N1CCN(C(=O)c2nn3c(C(F)(F)F)cc(-c4ccco4)nc3c2Cl)CC1`, for which the “hERG current change (%, negative = inhibition) at 10uM” value came to 23.6%. The same measure for `COc1ccc(-c2[nH]ncc2N=Nc2ccccc2)cc1`: 21.5%; for `CSC(=O)NC12CC3CC(CC(C)(C3)C1)C2`: 2.42%; for `COc1ccc2c(=O)cc(-c3ccccc3F)oc2c1`: 1.75%. The same measure for `CC(=O)c1cccc(NC(=O)CN2C(=O)C3C4C=CC(C4)C3C2=O)c1` (stereo not drawn): 7.68%. As for `COc1ccc(N2CCN(C3=CC(=O)N(c4cccc(Cl)c4)C3=O)CC2)cc1`, the figure is -41.7%. As to `COc1ccc(C)cc1NC(=O)c1cccc(-c2ccc(OC(C)=O)cc2)c1`, the “hERG current change (%, negative = inhibition) at 10uM” value came out at 28.5%.

Consider `Nc1ccc2oc(C3CCCCC3)nc2c1`, for which the “hERG current change (%, negative = inhibition) at 10uM” value amounted to 6.72%.

Take `COc1ccccc1OCC(=O)OCC(=O)Nc1ncc(Cl)cc1Cl`: the “hERG current change (%, negative = inhibition) at 10uM” value turned out to be 12.8%. With `Cc1cc(N=CC2=C(O)CC(C)(C)CC2=O)no1`, the “hERG current change (%, negative = inhibition) at 10uM” value is listed as -14.5%. In the case of `CCOC(=O)CCc1c(C)nc2cc(-c3ccccc3OC)[nH]n2c1=O`, the “hERG current change (%, negative = inhibition) at 10uM” value came out at 3.82%. `COC(=O)C(=NNc1c(C)n(C)n(-c2ccccc2)c1=O)C(=O)OC`: the “hERG current change (%, negative = inhibition) at 10uM” value is reported as 9.93%. As for `CCc1nc(SCC(=O)N2CC(=O)Nc3ccccc32)c2c(C)c(C)sc2n1`, the figure is 18.3%. The same measure for `O=C(NCCC1=CCCCC1)c1ccc([N+](=O)[O-])cc1`: -14.9%; for `CC(C)CC1C(C#N)=C(N)Oc2c1c(=O)oc1ccccc21` (stereo not drawn): 8.62%; for `CC12CC(NC(=O)N1c1cccc(C(=O)NCc3ccc4c(c3)OCO4)c1)c1cc(Cl)ccc1O2` (stereo not drawn): -11.1%. The same measure for `O=C(O)CC(Cc1ccccc1)C(=O)NCC12CC3CC(CC(C3)C1)C2` (stereo not drawn): 8.26%; for `COc1cc(OC)c(C(=O)Nc2cccc(C(C)=O)c2)cc1OC`: -9.08%; for `C=C1SC(=Nc2c(C)cccc2Cl)N(C(=O)c2sc3ccccc3c2Cl)C12CCCCC2`: 25.8%. For `Cc1ccc2nc(SCC(=O)c3c(C)[nH]c4ccccc34)[nH]c2c1`, the “hERG current change (%, negative = inhibition) at 10uM” value was determined as 22.2%. Regarding `COc1ccc(COC(=O)c2cccc(S(=O)(=O)N3CCCC3)c2)cc1F`, the “hERG current change (%, negative = inhibition) at 10uM” value was 4.43%. As for `O=C(COc1ccc(Cl)cc1)Nc1ccc(Cl)cn1`, the figure is -4.59%; as for `O=C(CSc1nc2ncccc2[nH]1)c1ccc(F)cc1`, 4.57%; as for `O=C(c1cc(=O)c2ccccc2o1)N1CCN(c2ccccc2F)CC1`, -15.3%. As for `Cc1ccc(S(=O)(=O)NNC(=O)c2cccnc2)cc1`, the figure is 13.1%; as for `COC(=O)c1c(C)oc2c1cc(NS(=O)(=O)c1ccc(C(=O)O)cc1)c1ccccc12`, 7.86%. For the compound `COc1ccc(CCC(=O)NCc2ccccc2Cl)cc1OC`, the “hERG current change (%, negative = inhibition) at 10uM” value was determined as 15%. Take `Cc1cc(C)cc(N(CC(=O)NC2CCC(C)CC2)S(=O)(=O)c2c(C)[nH]c(=O)[nH]c2=O)c1` (stereo not drawn): the “hERG current change (%, negative = inhibition) at 10uM” value stood at 14.4%. Take `COc1ccc(S(=O)(=O)Cc2ccc(C(=O)NCCc3ccc(S(N)(=O)=O)cc3)o2)cc1`: the “hERG current change (%, negative = inhibition) at 10uM” value amounted to 10.1%. The same measure for `CC(Oc1ccccc1)C(=O)N=Nc1c(O)[nH]c2ccc(Br)cc12` (stereo not drawn): 34.1%; for `Cc1ccc(-c2nn(CCC(N)=O)c(=O)c3ccccc23)cc1`: -18.6%. Regarding `COC(=O)/C=C1\NCCNC1=O`, the “hERG current change (%, negative = inhibition) at 10uM” value came out at 7.37%. The same measure for `Cc1nnc(SCC(=O)Nc2ccc([N+](=O)[O-])cc2)n1C`: 2.98%; for `C/C(=N\NC(=O)c1cc(-c2cccc([N+](=O)[O-])c2)n[nH]1)c1ccc(F)cc1`: 8.28%; for `CCOC(=O)c1cc(-c2ccc(OC)cc2)nc2c1c(C)nn2CCC#N`: -9.41%. `O=C(NCCC1=CCCCC1)C(c1ccccc1)c1ccccc1`: the “hERG current change (%, negative = inhibition) at 10uM” value turned out to be 8.52%. On to `CCCCn1c(N)c(N(CC(C)C)C(=O)C2CCN(S(=O)(=O)c3ccc(C)c(C)c3)CC2)c(=O)[nH]c1=O`, for which the “hERG current change (%, negative = inhibition) at 10uM” value is recorded as -3.22%. The same measure for `CC(C)c1cccc(C(C)C)c1NC(=O)COC(=O)c1ccc(OCC(=O)Nc2cccc(C(F)(F)F)c2)cc1`: 11.7%; for `CC1CCC2(CC1)NC(=O)N(CC(=O)Nc1ccccc1-c1ccccc1)C2=O` (stereo not drawn): -21.4%; for `O=C(CSc1nnc2ncccn12)N1CCCCCC1`: 6.85%.

As to `CC(Cl)C(=O)c1ccc2c(c1)CCN2C(=O)C1CC1` (stereo not drawn), the “hERG current change (%, negative = inhibition) at 10uM” value is given as -2.76%.

For the compound `CC(=O)C1=C(O)C(=O)N(c2cccnc2)C1c1cccc([N+](=O)[O-])c1` (stereo not drawn), the “hERG current change (%, negative = inhibition) at 10uM” value was -8.52%. As to `C=CCN(CC=C)C(=S)NC(=O)c1ccc(OC)c(Br)c1`, the “hERG current change (%, negative = inhibition) at 10uM” value turned out to be 5.1%. Regarding `CSC1=NCCN1C(=O)c1ccc(S(=O)(=O)N(C)C)cc1`, the “hERG current change (%, negative = inhibition) at 10uM” value turned out to be 4.69%.

As to `CCCCNC(=S)N/N=C/C1=CCC2CC1C2(C)C` (stereo not drawn), the “hERG current change (%, negative = inhibition) at 10uM” value came to 14%.
